# Test results from PubChem BioAssay AID1508624 (National Center for Advancing Translational Sciences (NCATS), 2021).
# Among all 48,000 compounds or so, about 120 (0.25%) were called active. Roughly 4% stayed inconclusive and do not appear here. The call rests on the fitted dose curve; in most records, active means well fitted activation curve with a large enough effect; inconclusive means small, poorly fitted or top-dose-only effect, or another doubt; inactive means no such curve, though single readings can be large or run the other way. Some of the results follow.
# Assay: Primary qHTS for Identification of Small Molecule Activators of Huntingtin-Antisense Promoter Activity; further: nearly all actives have a fitted effect of over 55% in size
# Settings: HEK293 HTT-AS promoter firefly luciferase reporter, 24 h; series mostly up to 57.5 µM; activity change, positive = activation: at the top concentration
# Procedure, shortened: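 HEK293 cells carrying firefly luciferase reporters were seeded at 2,500 per well in Opti-MEM and cultured for 24 h. They were then treated with compounds at up to 57.5 uM final for 24 h at 37 degrees C before Dual-Glo luminescence readout.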
# Potency means the concentration at half of the fitted maximal effect.
Structure (SMILES),"activity change, positive = activation",Potency
O=C(Nc1ccc2nc(SCC(=O)N3CCc4ccccc43)sc2c1)c1cccc(Cl)c1,inactive: -8.04%,–
CN(C(=O)CCS(=O)(=O)c1cc2c(cc1Cl)NC(=O)CO2)C1CCCCC1,inactive: -10%,–
Cc1nncn1-c1ccc(C(=O)Nc2cc(F)ccc2F)cc1,inactive: 1.49%,–
Cc1ccc(CCNC(=O)CCS(=O)(=O)c2cc3c(cc2C)NC(=O)CO3)cc1,inactive: -16%,–
COc1ccc(C)cc1NS(=O)(=O)c1cc2c3c(c1)CC(=O)N3CCC2,inactive: 0.932%,–
COc1ccc(NC(=O)CSc2nc3nc(C)c(Cc4ccccc4Cl)c(C)n3n2)cc1OC,inactive: -13.3%,–
CCn1c(=N)c(C(=O)NC2CCCCC2)cc2c(=O)n3cc(C)ccc3nc21,inactive: -5.59%,–
COc1ccc(-n2c(=O)c3ccccc3n(CC(=O)NCCc3ccc(OC)c(OC)c3)c2=O)cc1,inactive: -11.4%,–
Cc1ccccc1CCNC(=O)c1cc2cc(S(=O)(=O)N3CCCCC3)ccc2n1C,inactive: -36.2%,–
COc1ccc(NC(=O)c2cc3c(=O)n(Cc4cccnc4)ccc3nc2C)cc1OC,inactive: -6.42%,–
COc1ccc(Cl)cc1NC(=O)CCCN1C(=O)C(c2ccccc2)Oc2cccnc21 (centres undefined),inactive: -30.4%,–
COc1cc2c(cc1OC)C(COc1cc(C)cc(C)c1)N(C(=O)COc1ccccc1)CC2 (centres undefined),inactive: -28.7%,–
CCOc1ccc(NC(=O)C2CCCN(S(=O)(=O)c3ccc4[nH]c(=O)ccc4c3)C2)cc1 (centres undefined),inactive: -22.1%,–
Cc1ccc(NC(=O)C(=O)c2cc(C)n(-c3ccc(F)cc3)c2C)cc1C,inactive: 1.4%,–
COc1cccc(-n2ccn(CC(=O)c3ccc(F)cc3)c(=O)c2=O)c1,inactive: -3.28%,–
COc1ccccc1N1CCN(C(=O)CSc2nc3ccccc3nc2Cc2ccccc2)CC1,inactive: -8.96%,–
O=C(O)C=Cc1ccc(Cn2ccnc2)cc1,inactive: -1.66%,–
COc1ccc(CNC(=O)c2cc(Nc3ccc(C)cc3C)nc3ccccc23)cc1,inactive: -4.76%,–
CCCN(CCC)S(=O)(=O)c1ccc2c(c1)N(CC(=O)NC(C)c1ccccc1)C(=O)CS2 (centres undefined),inactive: -30.9%,–
CCN(c1cccc(C)c1)S(=O)(=O)c1nnc(NC(=O)c2ccccc2Cl)s1,inactive: -35.1%,–
COc1ccccc1N1CCN(C(=O)c2cc(-c3ccc(F)cc3)on2)CC1,inactive: -11.3%,–
CC(=O)c1ccc(N2C(=O)N(CC(=O)c3ccc(C)cc3)c3ccccc3S2(=O)=O)cc1,inactive: -25.1%,–
Cc1ccc2nc(CNC(=O)c3ccccc3)[nH]c2c1,–,active: 4.47 µM
Cc1cccc(-c2noc(CSc3nc(-c4ccc(F)cc4)cc(=O)[nH]3)n2)c1,inactive: 4.62%,–

Structure (SMILES),"activity change, positive = activation",Potency
COc1ccc(CCNC(=O)C(=O)NCC(c2ccc3c(c2)OCO3)N2CCOCC2)cc1OC (centres undefined),inactive: -10.2%,–
Cc1cccn2c(=O)c(C(=O)NCCc3ccccc3)c(O)nc12,inactive: 23.8%,–
N#Cc1cc(NC(=O)Nc2nnc(-c3ccncc3)s2)ccc1-c1cn[nH]c1,inactive: -9.47%,–
CCOc1ccc(NC(=O)c2oc3ccccc3c2NC(=O)c2c(F)cccc2F)cc1,inactive: -2.61%,–
O=C(Nc1nnc(S(=O)(=O)N2CCCc3ccccc32)s1)c1ccccc1,inactive: -21.2%,–
COC(=O)c1cnn2c(C)c(Cc3c(C)cc(C)cc3C)c(C)nc12,inactive: -14.6%,–
COc1ccc(NC(=O)CCn2c(=O)c3cccn3c3ccccc32)c(OC)c1,inactive: -8.23%,–
CCC1CN(C(=O)Nc2cccc3c2CCCC3)c2ccccc2O1 (centres undefined),inactive: -34.1%,–
Cc1ccc2c(=O)cc(C(=O)Nc3ccc(S(=O)(=O)N(C)Cc4ccccc4)cc3)oc2c1,inactive: -22.5%,–
CCN(CC)S(=O)(=O)c1ccc2c(c1)c(=O)c(C(=O)N1CCN(c3cccc(C)c3)C(C)C1)cn2C (centres undefined),inactive: -0.221%,–
Cc1ccc(CNC(=O)CN(c2ccc(C)cc2)S(=O)(=O)c2c(C)nn(C)c2C)cc1,inactive: -17%,–
COc1ccccc1-c1cc2nc(C)c(CCC(=O)NCc3cccc(Cl)c3)c(C)n2n1,inactive: -80%,–
CC(=O)c1ccc(NC(=O)CN(C)S(=O)(=O)c2cccc3nsnc23)cc1,inactive: 19.3%,–
CCCCn1c(C(C)NC(=O)c2ccccc2)nc2ccccc21 (centres undefined),inactive: -23.5%,–
COc1ccc(N2CC(NC(=O)C3CC3)CC2=O)cc1OC (centres undefined),inactive: 4.08%,–
CCC(Sc1nc2ccccc2c2nc(-c3ccccc3)nn12)C(=O)Nc1cccc(OC)c1 (centres undefined),inactive: -5.85%,–
COC(=O)c1c(NC(=O)CS(=O)(=O)c2ccc(C)cc2)sc2c1CCCC2,inactive: -21.7%,–
Cc1ccc2oc(=O)c3cnn(CC(=O)N4CCN(c5ccccc5)CC4)c3c2c1,inactive: -11%,–
Cc1c(Cl)cccc1NC(=O)CCN1C(=O)c2ccccc2Sc2ncccc21,inactive: -22.3%,–
Cc1cc(NC(=O)CCNS(=O)(=O)c2ccc3c(c2)oc(=O)n3C)ccc1Br,inactive: -17.7%,–
CCN(C(=O)Cn1nnc2sc(-c3ccccc3)cc2c1=O)c1cccc(C)c1,inactive: -17%,–
O=C(Nc1cccc(Cl)c1)c1ccc(F)c(S(=O)(=O)N2CCC3(CC2)OCCO3)c1,inactive: -22.9%,–
CCC(C)NC(=O)CSc1nc2n[nH]c(C)c2c(=N)n1-c1ccc(C)c(Cl)c1 (centres undefined),inactive: -25.4%,–
O=C(Nc1ccc(F)cc1F)c1cc2nc(-c3ccco3)cc(C(F)(F)Cl)n2n1,inactive: 0.474%,–

Structure (SMILES),"activity change, positive = activation",Potency
CCc1nn(CC(=O)NCc2ccccc2Cl)c(=O)c2cccn12,inactive: -0.941%,–
COc1ccc(CCNC(=O)c2ccc3c(c2)N(Cc2ccc(F)cc2)CCS3)cc1OC,inactive: -30.9%,–
Cc1nc(-c2ccc(S(=O)(=O)Nc3ccc(C)c(N(C)C)c3)cc2)co1,inactive: -47.4%,–
Cc1cc(C)cc(NC(=O)c2cccc3c2C(=O)N(C2CCCCC2)C3)c1,inactive: -2.65%,–
COc1ccccc1-n1c(-c2ccc(C)cc2)cn2c3c(=O)n(C)c(=O)n(C)c3nc12,inactive: -17.2%,–
Cc1nc(SCC(=O)Nc2ccccc2F)[nH]c(=O)c1Cc1ccccc1,inactive: -8.05%,–
O=S(=O)(c1ccccc1)c1nc(-c2cccs2)oc1SCc1ccc(F)cc1,inactive: 11.1%,–
COc1ccc(S(=O)(=O)c2cc(NS(=O)(=O)c3ccc(Cl)cc3)c(C)c(C)c2O)cc1,inactive: -24.2%,–
Cc1c(C(=O)Nc2ccc(F)cc2)sc2nc[nH]c(=O)c12,inactive: 19.9%,–
CCc1ccccc1NC(=O)c1cc(S(=O)(=O)N2CCCc3ccccc32)ccc1F,inactive: -33.9%,–
CC(C)CCn1c(=O)c2sccc2n2c(CCCC(=O)NCc3ccc(F)cc3)nnc12,inactive: -10.9%,–
Fc1cccc(-n2ncc3c2ncn2nc(-c4ccccc4Cl)nc32)c1,inactive: 1.67%,–
O=C(Cn1c(=O)c2cccn2c2ccc(F)cc21)N1CCN(c2ccc(F)cc2)CC1,inactive: -20.3%,–
Cc1cccc(N2CCN(C(=O)CCn3c(=O)c4cccn4c4cccnc43)CC2)c1C,inactive: -16.7%,–
O=C(COc1ccccc1)Nc1cccc(-c2cn3cccnc3n2)c1,inactive: 14.5%,–
CCOc1ccc(N(C)C(CNS(=O)(=O)c2ccccc2)c2ccccc2)cc1 (centres undefined),inactive: -20.6%,–
Cc1ccn2c(=O)c(C(=O)NC(C)c3ccccc3)c(O)nc2c1 (centres undefined),inactive: -2.84%,–
CCOc1ccccc1CNC(=O)c1cccn1-c1nnc(N2CCCCC2)s1,inactive: -9.04%,–
COc1ccccc1N1CCN(C(=O)c2cc(-c3ccccc3O)on2)CC1,"inactive: 9.72% [at 11.5 µM, percent change from vehicle, -100% = no light]",–
N#Cc1cccc(NC(=O)c2cc3c(s2)-c2ccc(Cl)cc2SC3)c1,inactive: -46.1%,–
Nc1ccc2cc3ccc(N)cc3nc2c1,inactive: -44%,–
CCOc1ccc(C(=O)Nc2cc(-c3nc4ccccc4s3)ccc2OC)cc1,inactive: -26.6%,–
CCOc1ccc(S(=O)(=O)c2cn(Cc3cc(C)ccc3C)c3ccc(OCC)cc3c2=O)cc1,inactive: -16.1%,–
CCOC(=O)Cn1c(=O)oc2cc(S(=O)(=O)N3CCN(c4ccc(C(C)=O)cc4)CC3)ccc21,inactive: -28.1%,–

Structure (SMILES),"activity change, positive = activation",Potency
COc1cccc(Nc2nc3cc(Cl)c(Cl)cc3nc2-n2nc(C)cc2C)c1,inactive: -11.9%,–
COc1ccc(NC(=O)Cn2nc(C)c3nn(-c4ccc(Cl)cc4)c(C)c3c2=O)cc1,inactive: -26.4%,–
CCCOC(=O)c1ccc(Cn2nnc3sc4c(c3c2=O)CCC(C)C4)cc1 (centres undefined),inactive: -23.3%,–
CCOc1ccc(NC(=O)c2cc(S(=O)(=O)N3CCOCC3)ccc2F)cc1,inactive: -17.3%,–
COc1ccccc1CNC(=O)c1cnc(N2CCCC2)nc1C,inactive: -7.44%,–
CC1CCN(c2oc(/C=C/c3ccc(F)cc3)nc2C#N)CC1,inactive: -5.3%,–
CCc1c(C)sc2c1CCN(C(=O)Nc1ccc(F)c(Cl)c1)C2c1ccc(F)cc1 (centres undefined),inactive: -27.9%,–
CCOc1ccc(-c2nc(Cn3c(=O)cc(C)c4c(C)nn(-c5ccc(C)cc5)c43)c(C)o2)cc1,inactive: 1.36%,–
COc1ccccc1NC(=O)C1=C(C)Nc2nc(SCc3ccccc3)nn2C1c1cccnc1 (centres undefined),inactive: -17.6%,–
O=C(Nc1ccccc1)C1CCN(S(=O)(=O)c2ccc3[nH]c4c(c3c2)CCCCC4)CC1,inactive: -32.5%,–
COc1ccc(CCNC(=O)CCn2c(=O)c3ccccc3n(CC(=O)Nc3ccc(C)cc3C)c2=O)cc1OC,inactive: -7.07%,–
Cc1ccc(NC(c2ccc(Cl)cc2)c2nnc(-c3cccc(F)c3)o2)cc1C (centres undefined),inactive: 5.25%,–
COC(=O)c1ccc(NC(=O)CN2C(=O)c3cccc4cccc2c34)cc1,"inactive: 5.29% [at 11.5 µM, percent change from vehicle, -100% = no light]",–
COC(=O)CCNC(=O)N1CCN(c2nnc(C)c3c(C)n(-c4ccc(Cl)cc4)nc23)CC1,inactive: -1.13%,–
CCN(CCCNC(=O)c1cc(Nc2ccccc2OC)nc2ccccc12)c1cccc(C)c1,inactive: -24.9%,–
COc1ccc(OC)c(CCNC(=O)c2c3c(nc4ccccc24)C(=O)N(C2CCCCC2)C3)c1,inactive: -21.7%,–
COc1ccc(-c2noc(C3CC(=O)N(c4ccccc4)C3)n2)c(OC)c1 (centres undefined),inactive: 2.23%,–
O=C(CSc1nc2c([nH]c3ccccc32)c(=O)n1-c1ccc(Cl)cc1)N1CCCC1,inactive: -7.66%,–
O=S(=O)(NCC(Nc1ccc(Cl)cc1)c1ccccc1)c1ccccc1 (centres undefined),inactive: -22.9%,–
Cc1cc(C)cc(NC(=O)CSc2nnc(-c3cc4occc4n3C)n2-c2ccccc2C)c1,inactive: -7.88%,–
O=S(=O)(NCCc1csc2nc(-c3ccccc3)nn12)c1ccc(Cl)s1,inactive: -26.3%,–
COc1ccc2c(CNC3CCCCCC3)c(C(=O)O)n(Cc3cccc(F)c3)c2c1,inactive: -19.4%,–
